20 variants from the RNAGym collection of RNA variant scans (doi:10.7554/elife.90254) can be followed below.

The source gives no read counts; variants with many changes may rest on few reads.

B1: OR4K15 (parent)
chain: GUUAACGGUCAUAGGCCAUGGAAACUAGGAGCACCAUUUCGCUGCCAGUGAAGAAAUGAACAAAGAAAAUCUGGGCCAGGCAGGCAUCAAAAGAAAUAGUCUUGCGCUCAACCAGAAAGUCUGUAAUCAUUUUAAGGGUA

The variants in the data set derive from B1. As to the kind of experiment: self-cleavage, relative activity (ratio to wild type); higher = more cleavage; in vitro, sequencing; the parent is a self-cleaving ribozyme.
As to GUUAACGGUCGUAGGCCAUGGAAACUAGGAGCACCAGUUCGCUGCCAGUGAAGAAAUGAACAAAGAAAAUCUGGGCCAGGCAGGCAUCAGAAGAAAUAGUCUUGCGCUCAACCAGAAAGUCUGUAAUCAUUUUAAGGGUA, the self-cleavage turned out to be 0.76.

In the case of GUUAACGGUCGUAGGCCAUGGAAACUAGGAGCACAAUUUCGCUGCCAGUGGAGAAAUGAACAAAGAAAAUCUGGGCCAGGCAGGCAUCAAAAGAAAUUGUCUUGCGCUCGACCAGAAAGUCUGUAAUCAUUUUAAGGGUA, the self-cleavage is 0.12.

As for GUUAACGGUCGUAGGCCAUGGAAACUAGGAGCACCAUUUCGCUGCCAGUGAAGAAAUGAACAAAGAAAAUCUGGGCCAGGCAGGCAUCAAAAGAAAUAGUCUUGCGCUCGGCCAGAAAGUCUGUAACCAUUUUAAGGGUA, the self-cleavage is 0.02.

GUUAACGGUCGUAGGCCAUGGAAACUAGGAGCACCACUUCGCUGCCAGUGAAGAAAUGAGCAAAGAAAAUCUGGGCCAGGCAGGCAUCAAAAGAAAUAGCCUUGCGCUCAACCAGAAAGUCUGUAAUCAUUUUAAGGGUA: the self-cleavage was 0.82.

On to GUUAACGGUCGUAGGCCAUGGAAACUAGGAGCACCAUCUCGCUGCCAGUGAAGAAAUGAACAAAGAAAAUCUGGGCCAGGCAGGCAUCAAAAGAAAUAGUCUUGCGCCCAACCAGAAAGUCUGUAAUCAUUUUAAGGGUA, for which the self-cleavage is 0.06.

GUUAACGGUCGUAGGCCAUGGAAACUAGGAGCACCAUUUCGCUGCCAGUGAAGAAAUGAACAAAGAAAAUCUGGGCCAGGCAGGCAUCAAAAGAAAUAGUCUUGCGCUCAACCAGAAGGCCUGUAAUCAUUUUAAGGGUA: the self-cleavage is 0.24.

As for GUUAACGGUCGUAGGCCAUGGAAACUAGGAGCACCAUUUCGCUGCCAGUGAAGAAAUGAACAAAGAAAAUCUGGGCCAGGCAGGCAUCAAAAGAAAUAGUCUUGCGCUCAACCAGAAGGUCCGUAAUCAUUUUAAGGGUA, the self-cleavage was 0.44.

On to GUUAACGGUCGUAGGCCACGGAAACUAGGAGCACCCUUUCGCUGCCAGUGAAGAAAUGAACAAAGAAAAUCUGGGCCAGGCAGGCAUCAAAAGUAAUAGUCUUGCGCUCAACCUGAAAGUCUGUAAUCAUUUUAAGGGUA, for which the self-cleavage was determined as 0.06.

Regarding GUUAACGGUCGCAGGCCAUGGAAACUAGGAGCACCAUUUCGCUGCCAGUGAAGAAAUGAACAAAGAAAAUCUGGGCCAGGCAGGCAUCAAAAGAGAUAGUCUUGCGCUCAACCAGAAAGUCUGUAAUCAUUUUAAGGGUA, the self-cleavage is 1.19.

GUUAACGGUCGUAAGCCAUGGAGACUAGGAGCACCAUUUCGCUGCCAGUGAAGAAAUGAACAAAGAAAAUCUGGGCCAGGCAGGCAUCAAAAGAAAUAGUCUUGCGCUCAACCAGAAAGUCUGUAAUCAUUUUAAGGGUA: the self-cleavage is 1.11.

GUUAACGGUCGUAAGCCAUGGAAACUAGGAGCACCAUUUCGCUGCCAGUGAAGAAAUGAACGAAGAAAAUCUGGGCCAGGCAGGCAUCAAAAGAAAUAGUCUUGCGCUCAACCAGAGAGUCUGUAAUCAUUUUAAGGGUA: the self-cleavage turned out to be 1.81.

For GUUAACGGUCGUAGGCCAUGGAAACUAGGAGCACCAUUUCGCUGCCAGUGAAGAAAUGAACAAAGAAAAUUUGGGCCAGGCAGGCAUCAAAAGAAAUAGUCUUGCGCUCAACCAGAAAGUCUGUAAUCAUCUUAAGGGUA, the self-cleavage turned out to be 0.07.

Regarding GUUAACGGUCGUAGGCCAUGGAAACUAGUAGCACCAUUUCGCUGCCAGUGAAGAAAUGAACAAAGAAAAUCUGGGCCAGGCAGGCAUGAAAAGGAAUAGUCUUACGCUCAACCAGAAAGUCUGUAAUCAUUUUAAGGGUA, the self-cleavage was found to be 0.02.

GUUAACGGUCGUAGGCCAUGGAAACUAGGAGCACCAUCUCGCUGCCAGUGAAGAAAUGAACAAAGAAAAUCUGGGCCAGGCAGGCAUCAAAAGAAAUAGUCUUGCGCUCAACCAGAAAGUCUGUAAUCGUUUUAAGGGUA: the self-cleavage was 1.25.

For GUUAACGGUCGUAGGCCAUGGAAACUAGGAGCACCAUUUCGCUGCCAAUGAAGAAAUGAUCAAAGAAAUUCUGGGCCAGGCAGGCAUCAAAAGAAAUAGUCUUGCGCUCAACCAGAAAGUCUGUAAUCAUUUUAAGGGUA, the self-cleavage was 0.92.

For GUUAACGGUCGUAGGCCAUGGAAACUAGGAGCACCAUCUCGCUGCCAGGGAAGAAAUGAACAAAGAAAAUCUGGGCCAGGCAGGCAUCAAAAGAAAUAGUCUUGCGCUCAACCAGAAAGUCUGUAAACAUUUUAAGGGUA, the self-cleavage came out at 1.27.

For GUUAACGGUCGUAGGCCAUGGAAACUAGGAGCACCAUUUCGCUGCCAGUGAAGAAAUGAACAAAGAAAAUCUGGGCCAGGCAGGCAUCAAAAGAAAUUGUCUUGCGCUCAACCAGAAAGUCUGUAAUCAUUUUAAGGGCA, the self-cleavage amounted to 1.68.

In the case of GUUAACGGUCGUAGGCCAUGGAAACUAGGAGCACCAUUUCUCUGCCAGUGAAGAAAUGAACAGAGAAAAUCUGGGCCAGGCAGGCAUCAAAAGAAAUAGUCUUGCGCUCAACCAGAAAGUCUGUAAUCAUUUUAAGGGUA, the self-cleavage was found to be 1.48.

Regarding GUUAACGGUCGUAGGCCAUGGAAACUAGGAGCACCAUUUCGCUGCCAGUAAAGAAAUGAACAAAGAAAAUCUGGGCCAGUCAGGCAUCAAAAGGAAUAGUCUUGCGCUCAACCAGAAAGCCUGUAAUCAUCUUAAGGGUA, the self-cleavage is 0.07.

GUUAACGGUCGUAGGCCAUGGAAACUAGGAGCACCAUUUCGCUGCCAGUGAAGAAAUAAACAAAGAAAAUCUGGGCCAGGCACGCAUCAGAAGAAAUAGUCUUGCGCCCAACCGGAAAGUCUGUAAUCAUUUUAAGGGUA: the self-cleavage is 0.06.
